Data taken from PubChem BioAssay AID485294 (National Center for Advancing Translational Sciences (NCATS), 2010).
About 150 (0.041%) of roughly 370,000 compounds were called active. Inconclusive results, whose numbers are uncertain, are shown with a selection of clear calls. Calls follow the shape of the dose curve; as a rule, active = well fitted inhibition curve with a large enough effect; inconclusive = small, poorly fitted or top-dose-only effect; inactive = flat fitted curve, though single readings scatter. Potencies of inconclusive entries are left out as doubtful fits.

target: Beta-lactamase (Escherichia coli (strain K12)) (UniProt P00811); assay: qHTS Inhibitors of AmpC Beta-Lactamase (assay with detergent); details: AmpC hydrolysis of nitrocefin, absorbance 480 nm, 0.01% Triton; activity change, negative = inhibition: at 114 µM (top of the series); also: nearly all actives have a fitted effect of over 25% in size;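 as to activity change, negative = inhibition: 0% = no-compound wells and -100% = no-enzyme wells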
Sequence of UniProt P00811 (P00811 whole entry, looked up): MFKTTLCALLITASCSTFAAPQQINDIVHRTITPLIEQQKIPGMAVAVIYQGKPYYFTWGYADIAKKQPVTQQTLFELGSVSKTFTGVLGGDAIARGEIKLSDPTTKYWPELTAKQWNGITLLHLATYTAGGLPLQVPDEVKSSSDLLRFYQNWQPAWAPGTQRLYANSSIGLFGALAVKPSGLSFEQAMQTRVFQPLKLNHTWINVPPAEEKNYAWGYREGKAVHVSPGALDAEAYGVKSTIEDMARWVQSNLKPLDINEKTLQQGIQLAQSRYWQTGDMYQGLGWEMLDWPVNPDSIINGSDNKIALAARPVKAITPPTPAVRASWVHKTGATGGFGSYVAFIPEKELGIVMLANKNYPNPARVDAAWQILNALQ
How it was run: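 20 mM phosphate pH 7.0 + 0.01% (detergent screen) or 0.0001% Triton X-100; 5.3 nM AmpC reagent; cpd preinc 15 min RT; nitrocefin (800 uM stock) to start; A480 q20 s × 4 min; Activity was normalised to no-enzyme and no-compound control wells.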
Potency is read from the fitted curve at half-maximal effect; tags tell the direction and shape of the fitted curve.

Q: CCc1ccc(/C=N\NC(=O)c2ccc(Br)o2)s1 was tested. Which “activity change, negative = inhibition” value did it give?
A: inactive: -11.5%

Q: For CCn1c(CC(=O)Nc2ccc(C)c(Cl)c2)nnc1SCCOc1ccc(OC)cc1, which Potency is on record?
A: inconclusive [inhibitor, partial curve, poor fit]

Q: Cc1cc(C)n2nc(SCCOc3ccccc3)nc2n1 was tested. Which “activity change, negative = inhibition” value did it give?
A: inactive: -6.94%

Q: Which Potency does the source give for CC1CC(C)CN(C(=O)CSCC(=O)Nc2nc(-c3cccs3)cs2)C1 (centres undefined) here?
A: inconclusive [inhibitor, full curve, poor fit]

Q: CC(C)NC(=O)COC(=O)c1cncc(Br)c1 was tested. Which Potency did it give?
A: inconclusive [inhibitor, full curve]

Q: How did the Potency turn out when Nc1cc(=O)[nH]c(=O)n1CCc1ccccc1 was run?
A: inconclusive [inhibitor, full curve]

Q: With COc1cccc(NC(=O)CCc2nnc3ccc(N4CCN(c5cccc(OC)c5)CC4)nn23)c1 as the compound, how does the “activity change, negative = inhibition” value read?
A: inactive: 3.51%

Q: How did the Potency turn out when COc1ccc(-c2ccc(=O)n(Cc3ccc([N+](=O)[O-])cc3)n2)cc1 was run?
A: inconclusive [inhibitor, single point]

Q: Cc1ccc(C2CC(c3ccc(Br)cc3)=NN2C(=O)CSC2=NN3CCCC(=O)N=C3S2)cc1 (centres undefined) was tested. Which Potency did it give?
A: inconclusive [inhibitor, full curve, poor fit]

Q: Which “activity change, negative = inhibition” value does the source give for O/N=C(/c1ccccc1)c1cc2cc(Br)cc(Br)c2o1 here?
A: inactive: 7.45%

Q: How did the Potency turn out when COC(=O)c1sccc1NC(=O)COc1ccc(Cl)cc1 was run?
A: inconclusive [inhibitor, full curve, poor fit]

Q: For Cc1nnc(NCc2ccco2)c2ccccc12, which Potency is on record?
A: inconclusive [inhibitor, full curve]

Q: CC(=O)Nc1cccc(-c2nc3ccccc3o2)c1 was tested. Which Potency did it give?
A: inconclusive [inhibitor, partial curve, poor fit]

Q: For CCOC(=O)CN(Cc1sccc1C)C(=O)Nc1cccc(OC)c1, which “activity change, negative = inhibition” value is on record?
A: inactive: -3.28%

Q: How did the Potency turn out when O=C(NCCS(=O)(=O)NCc1ccc(F)cc1)c1ccccc1 was run?
A: inconclusive [inhibitor, full curve, poor fit]

Q: Which Potency does the source give for Cc1cc(C)c(C(=O)NNC(=O)c2cccnc2)c(C)c1 here?
A: inconclusive [inhibitor, single point]

Q: How did the Potency turn out when CC(=O)c1ccc(N2CCN(C(=O)c3cc4c(s3)CCCC4)CC2)cc1 was run?
A: inconclusive [inhibitor, partial curve, poor fit]

Q: CC(C)(C)c1cc(NC(=O)c2ccco2)n(-c2ccccc2)n1 was tested. Which Potency did it give?
A: inconclusive [inhibitor, full curve, poor fit]

Q: Which “activity change, negative = inhibition” value does the source give for CCc1ccc(NS(=O)(=O)c2ccc3oc(=O)ccc3c2)cc1 here?
A: inactive: -1.28%

Q: How did the Potency turn out when CCC1CCCCN1CCNC(=O)C1CCN(S(=O)(=O)c2c(C)noc2C)CC1 (centres undefined) was run?
A: inconclusive [inhibitor, full curve, poor fit]

Q: For CN(C)c1ccc(-c2c(-c3ccc4c(c3)OCO4)noc2-c2ccsc2)cn1, which Potency is on record?
A: inconclusive [inhibitor, full curve, poor fit]

Q: For O=C1Nc2ccccc2C1c1ncc(C(F)(F)F)cc1Cl (centres undefined), which “activity change, negative = inhibition” value is on record?
A: inactive: -8.35%

Q: Cc1cc(Cl)ccc1OCC(=O)N/N=C1\CC2C=CCC12 (centres undefined) was tested. Which Potency did it give?
A: inconclusive [inhibitor, partial curve]

Q: O=C1C2(c3ccccc3)CN(CCCO)CC1(c1ccccc1)CN(CCCO)C2 was tested. Which Potency did it give?
A: inconclusive [inhibitor, full curve, poor fit]

Q: How did the “activity change, negative = inhibition” value turn out when O=C(NC(=S)NNC(=O)c1ccccc1O)c1cccnc1 was run?
A: inactive: -9.59%

Q: For COc1ccc(C2CC(=O)C3=C(C2)NC(C)=C(C(=O)Nc2ccccc2C)C3c2coc3ccc(C)cc3c2=O)cc1OC (centres undefined), which Potency is on record?
A: inconclusive [inhibitor, partial curve, poor fit]

Q: For COC(=O)CCC(=O)c1oc2ccccc2c1N, which “activity change, negative = inhibition” value is on record?
A: inactive: -10.6%

Q: CCN(CC)C(=O)CSc1nc2sc(C)c(C)c2c(=O)[nH]1 was tested. Which Potency did it give?
A: inconclusive [inhibitor, single point]

Q: With COC(=O)C(C)(C)NC(=O)c1cccs1 as the compound, how does the Potency read?
A: inconclusive [inhibitor, full curve, poor fit]

Q: How did the Potency turn out when CCOC(=O)Cc1csc(NC(=O)CN(C)S(=O)(=O)c2cccc3cccnc23)n1 was run?
A: inconclusive [inhibitor, full curve, poor fit]

Q: How did the Potency turn out when CCCn1c(=N)c(S(=O)(=O)c2ccc(F)cc2)cc2c(=O)n3cccc(C)c3nc21 was run?
A: inconclusive [inhibitor, full curve]

Q: How did the Potency turn out when CC(C)Oc1ccccc1/C=N/NC(=O)c1ccccc1Cl was run?
A: inconclusive [inhibitor, full curve]

Q: How did the “activity change, negative = inhibition” value turn out when CN1CCN(C(CNC(=O)C(=O)Nc2cccc(Cl)c2)c2ccc3c(c2)OCO3)CC1 (centres undefined) was run?
A: inactive: 1.48%

Q: O=C1c2oc3ccccc3c(=O)c2C(c2cccc(Cl)c2)N1c1ccccn1 (centres undefined) was tested. Which “activity change, negative = inhibition” value did it give?
A: inactive: -3.81%

Q: Cn1c(CCN2CCOCC2)nc2cc(NC(=O)COc3ccccc3)ccc21 was tested. Which “activity change, negative = inhibition” value did it give?
A: inactive: -11.9%

Q: For CCCn1nc(C(=O)N2CCN(S(=O)(=O)c3ccc(C)c(C)c3)CC2)c2ccccc2c1=O, which “activity change, negative = inhibition” value is on record?
A: inactive: -7.97%

Q: CC1CCN(CCCCOc2ccccc2F)CC1 was tested. Which Potency did it give?
A: inconclusive [inhibitor, partial curve, poor fit]

Q: How did the Potency turn out when CCOc1ccc(NC(=O)c2cccc3c2C(=O)N(CCOC)C3)cc1 was run?
A: inconclusive [inhibitor, single point]

Q: With C=CCOc1ccc(CN(C)CC(=O)N(CC(C)C)c2c(N)n(CC(C)C)c(=O)[nH]c2=O)cc1 as the compound, how does the “activity change, negative = inhibition” value read?
A: inactive: -1.57%

Q: With c1ccc(-c2ncc3c(ccc4ccccc43)n2)cc1 as the compound, how does the Potency read?
A: inconclusive [inhibitor, full curve]

Q: With O=S(=O)(N/N=C/c1ccc(N2CCOCC2)cc1)c1ccc(Br)cc1 as the compound, how does the Potency read?
A: inconclusive [inhibitor, full curve, poor fit]

Q: Which “activity change, negative = inhibition” value does the source give for Cc1ccc(NC(=O)Cn2c(=O)n(Cc3ccc4c(c3)OCO4)c(=O)c3ccc(C(=O)NC4CCCCC4)cc32)c(C)c1 here?
A: inactive: 0.461%

Q: How did the Potency turn out when O=C(CN1CCCCCC1)Nc1ccccc1[N+](=O)[O-] was run?
A: inconclusive [inhibitor, full curve, poor fit]

Q: Cc1cc([N+](=O)[O-])ccc1NC(=O)c1ccc(NC(=O)C(C)C)cc1 was tested. Which Potency did it give?
A: inconclusive [inhibitor, full curve, poor fit]
